A short description of assay [1]: qHTS drug screen for cell cycle checkpoint inhibitors in PARPi-resistant BRCA-mutant ovarian cancer cell lines. (AID 1963452). To be noted: PEO1/OlaR viability, CellTiter-Glo luminescence, 96 h. In short, it runs like this: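 PEO1, PEO4 and PEO1/OlaR ovarian cancer cells, 600 per well, exposed 96 h at 37C to a dilution series. Viability read by CellTiter-Glo luminescence, normalized to DMSO and empty wells; activity summarized as Z-AUC.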

Assay [2] in a line: qHTS for identification of novel therapeutic agents for treatment of microphthalmiaassociated transcription factor (MiT) renal cell carcinoma (RCC) (AID 1963991). To be noted: CellTiter-Glo, 48 h; for z-score: stronger effect = lower value. In short, it runs like this:
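Viability of three TFE3-fusion renal carcinoma lines measured by CellTiter-Glo after 48 h treatment with each of 1912 compounds at 11 concentrations. Responses scaled between DMSO (100%) and empty wells (0%) before curve fitting.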

A short description of assay [3]: S16 Schwann cell PMP22 intronic element beta-lactamase assay (AID 624044). Also: nearly all actives have a fitted effect of over 15% in size. To be noted: S16 rat Schwann cells, PMP22 element beta-lactamase FRET, 24 h; measured here: 460 nm blue channel. In short, it runs like this:
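Beta-lactamase reporter under a PMP22 intronic regulatory element in stable S16 rat Schwann cells; 24 h compound exposure. 460 nm blue signal normalized between DMSO (0%) and potassium clavulanate, with 535 nm FRET tracking viability; curves classed by r2 and response.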

The mark [4] stands for this setting: measured here: PEO1 parental viability.
The mark [5] stands for this setting: TFE3-RCC UOK109 viability, measured here: UOK109 Z-AUC.
The mark [6] stands for this setting: TFE3-RCC viability, measured here: UOK124 Z-AUC.
The mark [7] stands for this setting: TFE3-RCC viability, measured here: UOK145 Z-AUC.
Where [8] appears, read: TFE3-RCC viability, measured here: UOK145 cell viability.

Drawing on PubChem BioAssay (NCATS), this text covers AC50 and z-score for four compounds.

Structures are written as SMILES. This is one part of the list. Shown are side measurements of this screen, not its main read-out; they come without a call. For part of these data: Compounds called inactive in the main read-out are mostly missing here. Potencies come from curve fits of mixed quality, noted in brackets.
Tags tell the direction and shape of the fitted curve.

Take `CS(=O)(=O)N(Cc1ccco1)CC(O)Cn1c2ccccc2c2ccccc21` (stereo not drawn): the AC50 in assay [1] (setting [4]) was 13.8 µM [falling, partial curve, poor fit]; in assay [2] (setting [8]) it was 14.8 µM [falling, partial curve, poor fit]. The z-score in assay [2] (setting [5]) is 0.0118; in assay [2] (setting [6]), -0.644; in assay [2] (setting [7]), -0.831.
Take `CC(=O)NCCC(=O)N[C@@H](CCC(N)=O)C(=O)N[C@@H](CO)C(=O)N[C@@H](CCC(N)=O)C(=O)N[C@@H](CCC(N)=O)C(=O)N[C@H](C(=O)N[C@@H](Cc1ccccc1)C(=O)N[C@]1(C)CCCCCCC=CCCC[C@@](C)(C(=O)N[C@@H](CCC(N)=O)C(=O)N[C@@H](CC(N)=O)C(N)=O)NC(=O)[C@H](CC(C)C)NC(=O)[C@H](CC(C)C)NC(=O)[C@@H](CCCNC(=N)N)NC(=O)[C@H](Cc2c[nH]c3ccccc23)NC(=O)[C@H](CC(C)C)NC(=O)[C@H](CC(N)=O)NC1=O)[C@H](C)O`: the half-maximal activity concentration (AC50) in assay [1] (setting [4]) is 0.977 µM [falling, partial curve, poor fit]; in assay [2] (TFE3-RCC viability, measured here: UOK124 cell viability) it was 37.2 µM [falling, single point]. The z-score in assay [2] (setting [5]) amounted to 0.56; in assay [2] (setting [6]) it was 0.614; in assay [2] (setting [7]), 0.769.
Turning to `O=c1cc(-c2ccc(O)c(O)c2)oc2cc(O)cc(O)c12`, the AC50 in assay [1] (measured here: PEO4 viability) was 27.5 µM [falling, single point]; in assay [2] (setting [8]) it was 37.2 µM [falling, partial curve, poor fit]. Further, the z-score in assay [2] (setting [5]) came to 0.344; in assay [2] (setting [6]), 0.793; in assay [2] (setting [7]) it was 0.597.
In the case of `C=C1CCC2[C@](C)(CO)C(O)CC[C@]2(C)C1C/C=C1/C(=O)OCC1O` (stereo partly drawn), the AC50 in assay [3] was 5.62 µM [falling, full curve, poor fit]; in assay [1] (setting [4]), 12.3 µM [falling, partial curve]; in assay [1] (measured here: PEO4 viability), 12.3 µM [falling, partial curve].
